{
  "source": "paper PMC7070733",
  "about": "(Molecules, 2020)",
  "details": "2.5% DMSO / MES buffer",
  "data": [
    {"smiles": "COC(=O)/C(C)=C/C(O)CC(C)C1(C)CC=C2C3CCC4C(C)(C)C(O)CCC4(C)C3(O)CCC21C", "note": "(stereo not shown) [GC2, Methyl (24E)-3a,9,23-trihydroxy-17,14-friedolanostan-14,24-dien-26-oate]", "values": [
      {"measurement": "solubility (in words)", "result": "low solubility"}
    ]}
  ]
}
